This note sets out measurements from the RNAGym collection of RNA variant scans (doi:10.7554/elife.90254).

B1: LINE1-full (parent)
chain: UACGUAGGUGGUUUUCCCCUGAUAGUGCUAAGGGGGCCUGGAAGUUUGGACUGGGCAGAGCUCAACACAGCGUGGCAAAGUGGCUGUGGCUAGACUGCCUCUCUGGAUUCCUCGUCACUCAGCAGGGCAUCUCUGAGAGAAAUGCC

Read counts are not given, so values of variants with three or more changes are uncertain.

Variants of B1 are the subject of this data set. Put plainly: self-cleavage, relative activity (ratio to wild type); higher = more cleavage; in vitro, sequencing; the parent is a self-cleaving ribozyme.
On to UACGUAGGUGGUUUUCCCCUGACAGUGCUAAGGGGGCCUGGAAGUUUGGACUGGGCAGAGCUCAACACAGCGUGGCAGAGUGGCUGUGGCUAGACUGCCUCUCUGGAUUCCUCAUCACUCAGCAGGGCAUCUCUGAGAGAAAUGCC, for which the self-cleavage was found to be 1.22.
On to UACGUAGGUGGUUUUCCCCUGAUAGUGCUAAGGGGGCCAGGAAGUUCGGACUGGGCAGUGCUCAACACAGCGUGGCUAAGUGGCUGUGGCUAGACUGCCUCUCUGGAUUCCUCGUCACUCAGCAGGGCAUCUCUGAGAGAAAUGCC, for which the self-cleavage is 0.92.
With UACGUAGGUGGCUUUCCCCUGAUAGUGCUAAGGGGGCCUGGAAGUUUGGACUGGGCAGAGCUCAACACAGCGUGGCAAAGUGGCUGUGGCCAGACUGCCUCUCUGGAUUCCUCGUCACUCAGCAGGGCAUCUCUGAGAGUAAUGCC, the self-cleavage was determined as 1.03.
For the variant UACGUAGGUGGUCUUCCCCUGGUAGUGCUAAGGGGACCUGGAAGUUUGGACUGGGAAGAGCUCAACACAGCGUGGCAAAGUGGCUGUGGCUAGACUGCCUCUCUGGAUUCCUCGUCACUCUGCAGGGCAUCUCUGAGAGAAAUGCC, the self-cleavage was determined as 0.13.
Under UACGUAGGUGGUUUUCCCCUGAUAGUGCUAAGGGGGCCUGGAAGUUUGGACUGGGCGGGGCUCAACACAGCGUGGCAAAGUGGCUGUGGCUAGACUGCCUCUCUGGAUUCCUCGUCACUCAGCAGGGCAUCUCUGAGAGAAACGCC stands 0.13.
Regarding UACGUAGGUGGUUUUCCCCUGAUAGUGCUAAGGGGGCCUGGAAGUUUGGACUGGGCAGAGCUCAACACAGCGUGGCUAAGUGACUGUGGCUAGACUGCCUCUCUGGAUUCCUCGUCACUCAGCAGGGCAUAUCUGAGAGAAUUGCC, the self-cleavage turned out to be 1.22.
As for GACGUAGGUGGUUUCCCCCUGAUAGUGCUAAGGGGGUCUGGAAGUUUGGACUGGGCAGAGCUCAACACAGCGUGGCAAAGUGGCUGUGGCUAGACUGCCUCUCUGGAUUCCUCGUCACUCAGCAGGGCAUCUCUGAGAGAAAUGCC, the self-cleavage stood at 1.89.
As to UACGUAGGUGGUUUACCCCUGAUAGUGCUAAGGGGGCCUGGAAGUUGGGACAGGGCAGAGCUCAACACAGCGUGGCAAAGUGGCUGUGGCUAGACUGCCUCUCUGGAUUCCUCGUCACUCAGCAGGGCACCUCUGAGAGGAAUGCC, the self-cleavage stood at 1.2.
Under UACGUAGGUGGUUUUCCCCUGAUAGUGCUAAGGGGGCCUGGAAGUUUGGACUGGGCAGAGCUCAACACAGCGUGGCAAAGCGGCUGUGGCUAGACUGCCACUCUGGACUCCUCGUCACUCAGCAGGGCAUCUCUGAGAGAAAUGCC stands 0.68; under UACGUAGGUGGUUUUCCCCUGAUAGUGCUAAGGGGGCCUGGAAGUUUGGACUGGGCAGAGCUCAACACAGCGUGGCGAAGUGGCAGUGGCUAGACUGCCUCUCUGGAUUCCUCGUCACACAGCAGGGCAUCUCUGAGAGAAAUGCC, 0.07; under UACGUAGGUUGUUUUCCCCUGAUAGUGCUAAGGGAGCCUGGAAGUUUGGACUGGGCAGAGCUCAACACAGCGUGGCAAAGUGGCUGUGGCUAGACUGCCUCUCUGGAUUCCUCGUCACCCAGCAGGGCAUCUCUGAGAGAAAUGCC, 0.26.
Consider UACGUAGGUGGUUUUCCCCUGAUAGCGCUAAGGGGGCCUGGAGGUUUGGACUGGGCAGAGCUCAACACGGCGUGGCAAAGUGGCUGUGGCUAGACUGCCUCUCUGGAUUCCUCGUCACUCAGCAGAGCAUCUCUGAGAGAAAUGCC, for which the self-cleavage was found to be 0.75.
Turning to UACGUAGGUGGUUUUCCCCUGAUAGUGCUAAGGGGGCCUGGAAGUUUGGACUUGGCAGAGCUCAGCACAGCGUGGCAAAGUGGCUGUGGCUAGACUGCCUCUCUGGAUUCCUCGUCACUCAGCAGGGCACCUCUGAGAGAAAUGCC, the self-cleavage stood at 0.05.
As for UACGUAGGUGGUUUUACCCUGAUAGUGCUAAGGGGGCCUGGAAGUUUGGACUGGGCUGAGCUCAACGCAGCGUGGCAGAGUGGCUGUGGCUAGACUGCCUCUCUGGAUUCCUCGUCACUCAGCAGGGCAUCUCUGAGAGAAAUGCC, the self-cleavage was found to be 0.5.
For UACGUAGGUGGUUUUCCCCUGAUAGUGCUAAGGGGGCCUGGAGGUUUGGACUGGGCAGAGCUCAACACAGCGUGGCAAAGUGGCUGAGGCUAGACUGCCUCUCUGGUUUCCUCGUCACUCAGCAGGGCAUCUCUGAGAGAAAUGCC, the self-cleavage came to 0.61.
Under UACGUAGGUGGUUUUCCCCUGAUAGCGCUAAAGGGGCCUGGAAGUUUGGACUGGGCAGAGCUCCACACAGCGUGGCAAAGUGGCUGUGGCUAGACUGCCUCUCUAGAUUCCUCGUCACUCAGCAGGGCAUCUCUGAGAGAAAUGCC stands 0.2.
In the case of UACGUAGGUGGUUUUCCCCUGAUAGUGCUAAGGGGGCCUGGUAGUUCGGACUGGGCAGAGCUCAACACAGCGUGGCAAAGUGGUUGUGGCUAGACUGCCUCUCUGGAUUCCUCGUCACUCAGCAGGGCAUCUCUGAGAGAAAUGCC, the self-cleavage was 0.22.
For the variant UACGUAGGUGGUUUCCCCCUGAUAGUGCUAAGGGGGCCUGGAAGUUUGGACUGGGCAGAGCUCAACACAGCGUGGCAAAGUGGCUGUGGCUAGACUGCCUCUCUGGGUUCCUCGUCACUCAGCAGGGCAUCUCCGAGAGAAGUGCC, the self-cleavage amounted to 1.31.
For the variant UACGUAGGUGGUCUUCCCCUGAUAGUGCUAAGGGGGCCUGGAAGUUCGGAUUGGGCGGAGCUCAACACAGCGUGGCAAAGUGGCUGUGGCUAGACUGCCUCUCUGGAUUCCUCGUCACUCAGCAGGGCAUCUCUGGGAGAAAUGCC, the self-cleavage was found to be 1.53.
UACGUAGGUGGCUUUCCCCUGAUAGUGCUAGGGCGGCCUGGAAGUUUGGACUGGGCAGAGCUCAACACAGCGUGGCAAAGUGGCUGUGGCUAGACCGCCUCUCUGGAUUCCUCGCCACUUAGCAGGGCAUCUCUGAGGGAAAUGCC: the self-cleavage came out at 0.
